In PubChem BioAssay AID504339 (National Center for Advancing Translational Sciences (NCATS), 2011):
Values joined by “and” are separate entries in the source; they are usually repeats but may differ in a detail not shown here. Equal entries are not always repeated. The campaign covered roughly 390,000 compounds. About 17,000 (4.4%) were called active. Inconclusive means that the source gave no clear call. Such entries were picked first, then a sample of the others. Calls come from the whole dose curve; as a rule, active = well fitted inhibition curve with a large enough effect; inconclusive = small, poorly fitted or top-dose-only effect; inactive = no such curve, though single readings can be large or run the other way. A potency beside an inconclusive call is a rough fit, not a confirmed value. A structure can be active in one record and inactive in another.

biological target: Lysine-specific demethylase 4A (Homo sapiens) (UniProt O75164); assay: qHTS Assay for Inhibitors of JMJD2A-Tudor Domain; settings: AlphaScreen JMJD2A-Tudor / H3K4me3 peptide binding; activity change, negative = inhibition: at 114 µM (top of the series); note: nearly all actives have a fitted effect of over 50% in size
% is set by controls: 0 for no effect and ±100 for the full control effect; potency is the fitted concentration of half-maximal effect; tags give direction and shape of the fitted curve.

Chain of UniProt O75164 (O75164 whole entry, looked up, the tested form may be a part): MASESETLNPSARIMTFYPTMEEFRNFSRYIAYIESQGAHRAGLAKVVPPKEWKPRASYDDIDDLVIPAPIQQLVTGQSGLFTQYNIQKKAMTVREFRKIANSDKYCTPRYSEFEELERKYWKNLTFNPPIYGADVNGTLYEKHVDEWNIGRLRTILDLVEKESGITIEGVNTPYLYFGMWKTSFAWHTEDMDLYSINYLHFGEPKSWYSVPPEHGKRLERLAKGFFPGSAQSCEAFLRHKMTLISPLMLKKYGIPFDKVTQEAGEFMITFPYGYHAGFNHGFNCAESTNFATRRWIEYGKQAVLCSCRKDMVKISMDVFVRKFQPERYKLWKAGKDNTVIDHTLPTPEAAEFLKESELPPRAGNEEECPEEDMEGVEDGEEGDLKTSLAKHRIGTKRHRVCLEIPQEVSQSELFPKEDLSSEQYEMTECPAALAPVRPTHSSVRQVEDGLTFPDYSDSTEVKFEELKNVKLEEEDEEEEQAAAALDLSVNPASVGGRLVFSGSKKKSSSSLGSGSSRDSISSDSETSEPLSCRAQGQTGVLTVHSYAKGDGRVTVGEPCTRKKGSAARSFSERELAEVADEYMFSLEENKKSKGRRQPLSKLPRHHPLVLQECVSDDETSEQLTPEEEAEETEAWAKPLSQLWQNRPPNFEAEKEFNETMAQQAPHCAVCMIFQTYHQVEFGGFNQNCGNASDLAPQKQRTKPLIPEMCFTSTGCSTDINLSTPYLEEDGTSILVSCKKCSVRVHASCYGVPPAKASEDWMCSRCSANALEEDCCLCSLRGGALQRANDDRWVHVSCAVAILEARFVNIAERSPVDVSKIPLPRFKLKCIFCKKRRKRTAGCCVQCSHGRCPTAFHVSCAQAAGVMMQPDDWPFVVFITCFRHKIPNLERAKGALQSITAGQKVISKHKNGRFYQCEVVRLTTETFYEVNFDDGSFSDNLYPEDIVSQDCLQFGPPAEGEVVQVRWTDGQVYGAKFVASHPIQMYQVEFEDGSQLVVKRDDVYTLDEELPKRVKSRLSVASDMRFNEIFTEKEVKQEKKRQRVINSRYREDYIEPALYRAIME

Activity change, negative = inhibition, inactive:
CC(=O)Nc1ccc(S(=O)(=O)Nc2nnc(C(C)C)s2)cc1 -33.3%
CC1C/C(=C/c2ccccn2)C(=O)/C(=C/c2ccccn2)C1 (centres undefined) -9.73%
CC(=O)N1CCc2cc(S(=O)(=O)NC(C)c3ccccc3)ccc21 (centres undefined) -2.74%
Cc1cc(C)cc(NC(=O)N2CCC(C(N)=O)(N3CCCCC3)CC2)c1 -8.72%
CCOc1ccccc1C=NNC(=O)c1cccc2ccccc12 -7.64%
COc1cc(F)c(S(=O)(=O)N2CCN(S(=O)(=O)c3cccc(NC(C)=O)c3)CC2)c(F)c1 -15%
COc1ccc(S(=O)(=O)NCc2cccn2Cc2cccc(C)c2)cc1Cl -25.2%
Cc1cc(C)c(S(=O)(=O)NCc2ccccn2)c(C)c1 -11.6%
COc1ccc(-c2cc(C(F)(F)F)nc(SCC(=O)N3CCCCC3)n2)cc1OC 6.53%
C=C(C)C1CC=C(C)/C(=N\NC(=S)Nc2ccc(C)cc2)C1 (centres undefined) -28.6%
CCCCN(C)CCCNC(=O)Cn1ncc2c3ccccc3n(Cc3cccc(Cl)c3)c2c1=O -20.1%
CCc1cccc(NC(=O)Cn2c(=O)n(-c3ccccc3C)c(=O)c3c2c2cc(C)ccc2n3C)c1 8.62%
CCNS(=O)(=O)c1ccc(C(=O)OCc2cc(=O)oc3cc(OC)ccc23)cc1 -20.4%
C=CC[C@@H]1Cc2c(Br)ccc(Br)c2[C@@H](CC=C)N1 32.1%
COc1ccc(NC2CC(=O)N(c3cccc(C)c3)C2=O)cc1 (centres undefined) -15.4%
COc1ccc(C2C(C(=O)c3ccccc3)N3c4ccccc4C=CC3C2[N+](=O)[O-])cc1 (centres undefined) -22.8%
Cc1cc(CNC(=O)c2ccc(C)c([N+](=O)[O-])c2)c2ccccc2n1 -8.25%
O=c1[nH]cc(S(=O)(=O)c2ccccc2)[nH]1 -14.3% [at 11.4 µM]
O=C(COC(=O)c1n[nH]c2ccccc12)Nc1ccccc1F -8.22%
Cc1cc(C)n2nc(C(=O)N3CCN(Cc4ccc5c(c4)OCO5)CC3)nc2n1 -4.9%

Potency, inconclusive:
O=c1c(N2CCN(c3ccccc3)CC2)csc2ccc(Cl)cc12 44.7 µM [inhibitor, partial curve]
CCN1c2ccccc2-n2cccc2C12CCN(C(=O)Nc1ccccc1Br)CC2 70.8 µM [inhibitor, partial curve, poor fit]
Cc1[nH]c2ccccc2c1SCC(=O)NNC(=O)Nc1ccc(OC(F)(F)F)cc1 50.1 µM [inhibitor, partial curve]
C=CCc1c(C)[nH]c2c(OC)cccc2c1=S 6.31 µM [inhibitor, full curve, poor fit]
O=C(NCc1ccccn1)c1ccc2c(c1)N(Cc1ccccc1)CCS2 56.2 µM [inhibitor, partial curve]
COc1cc(C(c2nnnn2C(C)(C)C)N2CCN(c3nc4ccccc4s3)CC2)ccc1O (centres undefined) 56.2 µM [inhibitor, partial curve]
OCCN(CC#CC(O)(c1ccccc1)c1cccc(F)c1)CCO (centres undefined) 89.1 µM [inhibitor, single point]
COc1ccc(OCC(=O)NCCc2ccc(S(N)(=O)=O)cc2)cc1 100 µM [inhibitor, single point]
Cc1ccc(Nc2nc(CSc3nnc(-c4cccs4)o3)cs2)cc1 56.2 µM [inhibitor, partial curve]
O=C(O)CCN1C(=O)/C(=C\c2cccc(Oc3ccccc3)c2)SC1=S 44.7 µM [inhibitor, partial curve]
O=C(CS(=O)(=O)Cc1ccccc1)N1CCN(Cc2ccc3c(c2)OCO3)CC1 31.6 µM [inhibitor, single point]
N#CC1=C(N)SC(N)=C(C#N)C1c1cccc(Oc2ccccc2)c1 79.4 µM [inhibitor, partial curve]
CCS(=O)(=O)N1CCc2cc(C(=O)N3CCN(c4ccc(OC)cc4)CC3)ccc21 28.2 µM [inhibitor, full curve]
Cc1cc(OCc2cc(C(=O)N(C)CC3CCOCC3)no2)cc(C)c1Cl 25.1 µM [inhibitor, full curve, poor fit]
CC(O/N=C\c1ccccc1O)C(=O)Nc1ccccc1C(=O)N1CCOCC1 (centres undefined) 56.2 µM [inhibitor, partial curve]
CN(C)c1ccc(NC(=O)Nc2cccc(Cl)c2)cc1 14.1 µM [inhibitor, full curve, poor fit]
COc1cc2c(c(OC)c1OC)-c1c(cc3c(c1O)OCO3)C[C@@H](C)[C@@H](C)C2 44.7 µM [inhibitor, partial curve]
CCCN(CCC)C(=O)CSc1nc2c(sc(=S)n2-c2ccc(OCC)cc2)c(=O)[nH]1 56.2 µM [inhibitor, partial curve]
COc1cc(OC)cc(C(=O)NCC(=O)OCc2csc(-c3ccccc3)n2)c1 79.4 µM [inhibitor, partial curve]
COC(=O)\C(C(C)=O)=C(/C=C/C=C/N(C)C)N(C)C 89.1 µM [inhibitor, single point]
CC(=O)c1ccc(N2CCc3ccccc3C2)c([N+](=O)[O-])c1 56.2 µM [inhibitor, partial curve]
COC(=O)C1=C(C)NC(C)=C(C(=O)OC)C1c1ccc(N(C)C)cc1 20 µM [inhibitor, partial curve]
Cc1ccc(Cl)cc1-n1c(CCC(=O)O)ccc1-c1cccs1 39.8 µM [inhibitor, full curve]
CCCn1c(SC(C)C(=O)O)nc2ccccc21 (centres undefined) 56.2 µM [inhibitor, partial curve]
COc1ccc2nc(NC(=O)c3nc(S(=O)(=O)Cc4ccccc4F)ncc3Cl)sc2c1 89.1 µM [inhibitor, partial curve]
CN(C)c1cccc(C(=O)NCC(c2ccco2)N(C)C)c1 (centres undefined) 56.2 µM [inhibitor, partial curve]
O=C(Cn1c(=O)c2cccn2c2cccnc21)N1CCN(c2ccc(Cl)cc2)CC1 56.2 µM [inhibitor, partial curve]
O=C(COC(=O)[C@H](Cc1c[nH]c2ccccc12)NC(=O)c1ccc(Cl)cc1)Nc1ccc2c(c1)OCO2 20 µM [inhibitor, full curve]
C=C1c2nc3ccccc3n2C=C(c2ccc(C)cc2)N1c1ccccc1 50.1 µM [inhibitor, partial curve]
Cc1ccc(Nc2cc(C)nc(-n3nc(C)cc3C)n2)cc1 7.94 µM [inhibitor, full curve, poor fit]
COc1cc(OC)cc(-c2nnc3n2N=C(c2ccccc2OC)CS3)c1 56.2 µM [inhibitor, partial curve]
COc1ccc(/C=N/NC(=O)Cc2csc(Nc3cccc(C(F)(F)F)c3)n2)cc1C 50.1 µM [inhibitor, partial curve]
O=c1cccccc1NN=C1CCCCC1 6.31 µM [inhibitor, single point]
Oc1ccc(C[C@H]2CNC(=S)N2CC2CCCN2C[C@H](Cc2ccc(O)cc2)N2C[C@H](Cc3ccc(O)cc3)N(CC3CCCCCC3)C2=S)cc1 (some centres undefined) 70.8 µM [inhibitor, partial curve, poor fit]
CCN(CC(O)Cn1c2ccccc2c2ccccc21)S(=O)(=O)c1ccc(F)cc1 (centres undefined) 35.5 µM [inhibitor, single point]
Cn1c(SCC(=O)NC(C)(C)C)nnc1-c1cccc(NC(=O)c2ccccc2F)c1 89.1 µM [inhibitor, single point]
O=C(CCN1C(=O)/C(=C/c2ccc3c(c2)OCO3)SC1=S)Nc1cccc(C(=O)O)c1 56.2 µM [inhibitor, partial curve]
Nc1cc(-c2ccc(Br)cc2)[nH]n1 28.2 µM [inhibitor, partial curve]
CCOc1ccccc1NC(=O)CSc1nccn1-c1cccc(C)c1 39.8 µM [inhibitor, partial curve]
O=C(O)CSCc1cn2cc(Cl)ccc2n1 50.1 µM [inhibitor, partial curve]
COc1ccc2c(Sc3ccc(C)cc3)c(C(=O)NC(C)C)[nH]c2c1 79.4 µM [inhibitor, partial curve]

Potency, active:
Cc1cc(N2CCN(c3ccccc3)CC2)nc(-n2nc(C)cc2C)n1 44.7 µM
Cc1ccc(C)c(-n2c(-c3ccncc3)n[nH]c2=S)c1 11.2 µM
COc1cccc(-c2n[nH]c(=S)n2Cc2ccco2)c1 20 µM
Cc1ccc(N2CC(C(=O)NCCS(=O)(=O)N3CCN(c4ccccc4F)CC3)CC2=O)cc1 (centres undefined) 15.8 µM
O=[N+]([O-])c1cc2no[n+]([O-])c2cc1N1CCCCC1 44.7 µM
CC(CNC(=O)c1cncc(O)c1)NC(=O)c1cncc(O)c1 (centres undefined) 50.1 µM
O=C(O)c1ncc(Cl)c(Cl)c1Cl 50.1 µM
COc1cc(C2CC(=O)Oc3c(C(CCN4CCN(c5ccccc5)CC4)c4ccc(N(C)C)cc4)c(OC)cc(OC)c32)cc(OC)c1OC (centres undefined) 12.6 µM and 8.91 µM
